Common to all, as to assay: protein-binding microarray (PBM)
Common to all, as to settings: PBM: ~300 nM protein, 6 mM HEPES pH 7.8, 80 mM KCl, 0.5 mM EDTA, 0.5 mM EGTA, 6% glycerol, 35 ng/ul poly-dIdC, 1% milk, 1 h, room temperature; Ap Aiptasia and Nv Nematostella (sea anemones) / Co Capsaspora / Aq Amphimedon (sponge) / Dm Drosophila / Hu human; RHD is the Rel homology domain; high values mean tight binding; most listed sequences are background and not binding sites; double strand, one strand shown

One assay has as its target T1, GST-Ap-NF-kB RHD (UniProt A0A913YAJ5).
T1 sequence: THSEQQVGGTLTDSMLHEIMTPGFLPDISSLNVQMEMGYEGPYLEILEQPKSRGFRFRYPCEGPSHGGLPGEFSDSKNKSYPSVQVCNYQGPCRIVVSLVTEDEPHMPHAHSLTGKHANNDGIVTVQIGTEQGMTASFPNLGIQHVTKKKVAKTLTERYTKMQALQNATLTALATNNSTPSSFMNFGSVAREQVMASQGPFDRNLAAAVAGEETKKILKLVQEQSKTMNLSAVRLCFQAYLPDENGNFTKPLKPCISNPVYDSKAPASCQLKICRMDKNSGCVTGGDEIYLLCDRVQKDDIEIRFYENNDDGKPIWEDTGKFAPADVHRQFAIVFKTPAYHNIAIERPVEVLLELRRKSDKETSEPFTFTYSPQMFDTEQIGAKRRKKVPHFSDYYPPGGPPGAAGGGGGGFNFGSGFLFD

For assay [1], the target named is T2, GST-Nv-NF-kB (Cys allele) (UniProt E5G601).
T2 sequence: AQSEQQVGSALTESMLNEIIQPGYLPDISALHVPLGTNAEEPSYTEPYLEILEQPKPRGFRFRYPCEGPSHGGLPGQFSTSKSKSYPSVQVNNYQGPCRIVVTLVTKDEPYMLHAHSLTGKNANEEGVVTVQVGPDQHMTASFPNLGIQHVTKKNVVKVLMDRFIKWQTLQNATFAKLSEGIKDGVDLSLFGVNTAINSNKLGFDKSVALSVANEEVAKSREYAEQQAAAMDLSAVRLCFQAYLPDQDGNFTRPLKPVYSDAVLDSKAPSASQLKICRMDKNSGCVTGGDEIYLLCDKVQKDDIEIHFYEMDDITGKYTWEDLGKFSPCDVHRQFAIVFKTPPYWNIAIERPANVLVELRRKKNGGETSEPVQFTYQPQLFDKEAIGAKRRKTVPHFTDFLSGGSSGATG

For a further assay, the target named is T3, GST-Co-NF-kB (UniProt F1ARL5).
T3 sequence: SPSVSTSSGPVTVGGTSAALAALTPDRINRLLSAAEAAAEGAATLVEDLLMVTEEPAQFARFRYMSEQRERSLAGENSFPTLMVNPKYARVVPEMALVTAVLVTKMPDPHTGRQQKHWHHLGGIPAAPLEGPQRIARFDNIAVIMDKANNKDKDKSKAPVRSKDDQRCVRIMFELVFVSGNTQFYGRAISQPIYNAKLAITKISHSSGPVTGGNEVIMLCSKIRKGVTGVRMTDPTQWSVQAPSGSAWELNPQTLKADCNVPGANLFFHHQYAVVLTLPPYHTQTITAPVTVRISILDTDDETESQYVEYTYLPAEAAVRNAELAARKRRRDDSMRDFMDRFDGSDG

A further assay has as its target T4, GST-Dm-Relish (UniProt Q94527).
T4 sequence: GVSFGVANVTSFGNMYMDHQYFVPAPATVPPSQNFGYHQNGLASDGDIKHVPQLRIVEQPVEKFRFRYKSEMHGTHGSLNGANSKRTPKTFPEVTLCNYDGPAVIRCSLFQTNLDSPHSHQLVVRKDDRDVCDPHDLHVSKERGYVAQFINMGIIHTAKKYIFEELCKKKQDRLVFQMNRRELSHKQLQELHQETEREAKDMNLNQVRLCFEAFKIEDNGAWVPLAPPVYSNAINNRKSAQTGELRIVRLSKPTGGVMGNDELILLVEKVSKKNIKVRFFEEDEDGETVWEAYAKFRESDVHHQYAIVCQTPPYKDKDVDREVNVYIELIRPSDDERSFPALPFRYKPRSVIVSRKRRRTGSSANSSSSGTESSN

The target in another assay is T5, GST-Aq-NF-kB (UniProt A9Y5G7).
T5 sequence: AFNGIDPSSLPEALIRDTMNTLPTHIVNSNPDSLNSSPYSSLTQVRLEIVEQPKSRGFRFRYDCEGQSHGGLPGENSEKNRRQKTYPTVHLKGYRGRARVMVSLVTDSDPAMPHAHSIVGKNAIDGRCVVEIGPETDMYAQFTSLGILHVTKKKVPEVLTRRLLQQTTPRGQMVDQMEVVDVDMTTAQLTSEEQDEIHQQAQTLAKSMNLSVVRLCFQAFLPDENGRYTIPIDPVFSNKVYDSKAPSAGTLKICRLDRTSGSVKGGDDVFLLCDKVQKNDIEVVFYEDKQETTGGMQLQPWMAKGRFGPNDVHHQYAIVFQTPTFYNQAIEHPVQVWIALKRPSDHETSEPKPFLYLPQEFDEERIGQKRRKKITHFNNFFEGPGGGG

Only a part is listed here, and it is no random draw. The list includes weakly bound sequences.

With “CCGATTAACATCAGGAATCCCCCTGATGTTAATCGGGTCTTGATTCGCTTGACGCTGCTG”, the binding signal with GST-Ap-NF-kB RHD was determined as 10.9 z-score; in assay [1] it was 10.2 z-score; in the assay with GST-Co-NF-kB it was 5.73 z-score; with GST-Dm-Relish it was 10.2 z-score; with GST-Aq-NF-kB, 9.58 z-score.
Regarding “CCGATTAACATCAGCGCCTTACCTGATGTTAATCGGGTCTTGATTCGCTTGACGCTGCTG”, the binding signal was 0.241 z-score with GST-Ap-NF-kB RHD; -0.434 z-score in assay [1]; -0.273 z-score in the assay with GST-Co-NF-kB; -0.572 z-score with GST-Dm-Relish; -0.2 z-score with GST-Aq-NF-kB.
For “CCGATTAACATCACAGAAATGGATGATGTTAATCGGGTCTTGATTCGCTTGACGCTGCTG”, in that order: -0.201 z-score, 0.137 z-score, 0.357 z-score, 0.372 z-score and -0.166 z-score.
The matching figures for “CCGATTAACATCATAGGTTCTCGTGATGTTAATCGGGTCTTGATTCGCTTGACGCTGCTG”: 0.477 z-score, -0.972 z-score, 0.511 z-score, -0.5 z-score and -0.342 z-score.
The matching figures for “CCGATTAACATCAAAGGCGGCTCTGATGTTAATCGGGTCTTGATTCGCTTGACGCTGCTG”: 0.25 z-score, -0.498 z-score, -1.26 z-score, -1.13 z-score and -0.464 z-score.
Turning to “CCGATTAACATCAATGAATTTCCTGATGTTAATCGGGTCTTGATTCGCTTGACGCTGCTG”, the binding signal with GST-Ap-NF-kB RHD is -0.198 z-score; in assay [1] it was -0.326 z-score; with GST-Co-NF-kB it was 0.703 z-score; with GST-Dm-Relish, 0.247 z-score; with GST-Aq-NF-kB, 0.654 z-score.
The matching figures for “CCGATTAACATCATACGAGACCCTGATGTTAATCGGGTCTTGATTCGCTTGACGCTGCTG”: 0.905 z-score, -0.0643 z-score, -0.109 z-score, 0.301 z-score and 0.541 z-score.
Consider “CCGATTAACATCAGCGTTTCTCTTGATGTTAATCGGGTCTTGATTCGCTTGACGCTGCTG”, for which the binding signal in the assay with GST-Ap-NF-kB RHD was -0.637 z-score; in assay [1] it was -0.345 z-score; with GST-Co-NF-kB, -0.45 z-score; with GST-Dm-Relish, -1.25 z-score; in the assay with GST-Aq-NF-kB, -0.257 z-score.
“CCGATTAACATCAGGTATATTAATGATGTTAATCGGGTCTTGATTCGCTTGACGCTGCTG”: the binding signal with GST-Ap-NF-kB RHD was 0.281 z-score; in assay [1], -0.155 z-score; with GST-Co-NF-kB, -0.429 z-score; with GST-Dm-Relish, 0.473 z-score; in the assay with GST-Aq-NF-kB, 0.0923 z-score.
For “CCGATTAACATCAACAGAAAGTTTGATGTTAATCGGGTCTTGATTCGCTTGACGCTGCTG”, in that order: -0.906 z-score, -0.293 z-score, -0.688 z-score, -0.114 z-score and -0.579 z-score.
“CCGATTAACATCATCCTAACTGCTGATGTTAATCGGGTCTTGATTCGCTTGACGCTGCTG”: the binding signal was -0.404 z-score with GST-Ap-NF-kB RHD; -0.136 z-score in assay [1]; -0.211 z-score with GST-Co-NF-kB; -0.567 z-score with GST-Dm-Relish; -0.378 z-score with GST-Aq-NF-kB.
For “CCGATTAACATCAACGCTGTCCTTGATGTTAATCGGGTCTTGATTCGCTTGACGCTGCTG”, in that order: -0.378 z-score, 0.288 z-score, -0.171 z-score, -0.688 z-score and -0.263 z-score.
For “CCGATTAACATCACCCTACAAGTTGATGTTAATCGGGTCTTGATTCGCTTGACGCTGCTG”, in that order: 0.512 z-score, -0.0481 z-score, 3.08 z-score, 0.318 z-score and 0.932 z-score.

Source of the values: paper PMC5700166.
